Data on one molecule can be found in PMC8389370, “pUL21 is a viral phosphatase adaptor that promotes herpes simplex virus replication and spread” (PLoS Pathogens, 2021).

This assay concerns the target T1, pUL21-GST (HSV-1 strain KOS, UniProt F8RG07 1-535).
T1 construct: HSV-1 strain KOS pUL21, UniProt F8RG07; the plasmid for the GST fusion is not described; also called Purified recombinant pUL21-GST; source: E. coli T7 Express lysY/Iq, purified (glutathione Sepharose 4B, SEC)
T1 sequence: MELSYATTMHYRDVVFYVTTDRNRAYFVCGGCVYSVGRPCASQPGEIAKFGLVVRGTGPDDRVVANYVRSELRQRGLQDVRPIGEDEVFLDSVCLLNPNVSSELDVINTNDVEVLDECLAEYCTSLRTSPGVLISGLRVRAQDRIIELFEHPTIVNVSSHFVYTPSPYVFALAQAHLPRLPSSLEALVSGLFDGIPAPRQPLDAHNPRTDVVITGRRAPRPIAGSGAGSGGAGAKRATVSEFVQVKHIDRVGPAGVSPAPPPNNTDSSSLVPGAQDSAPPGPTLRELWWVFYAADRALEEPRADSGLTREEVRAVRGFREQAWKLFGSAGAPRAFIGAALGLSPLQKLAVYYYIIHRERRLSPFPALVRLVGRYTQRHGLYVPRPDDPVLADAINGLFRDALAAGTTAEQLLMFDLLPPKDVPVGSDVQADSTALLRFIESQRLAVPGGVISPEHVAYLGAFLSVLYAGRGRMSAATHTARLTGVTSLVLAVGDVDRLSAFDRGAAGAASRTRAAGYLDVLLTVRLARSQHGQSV
Description: pull-down; pUL21-GST (1 μM) on glutathione magnetic beads, 5 μM purified prey, 60 min at room temperature, 20 mM Tris pH 8.5, 200 mM NaCl, 0.1% NP-40, 1 mM DTT, 1 mM EDTA; eluted with glutathione, Coomassie SDS-PAGE. To be noted: both partners purified.

B1: PP1γ([…])-H6, core catalytic domain of mouse PP1γ (domain or fragment)
chain: not shown
notes: mouse PP1γ, […], core catalytic domain, […], sub-cloned into pOPTnH; also called PP1([…])-H6; source: E. coli T7 Express lysY/Iq, purified (Ni-NTA, SEC); not shown: KH6, C-terminal, kept
In the case of B1, the binding result is reported as “binds”.
